From PubChem BioAssay AID493208 (National Center for Advancing Translational Sciences (NCATS), 2011)
Screen size: about 44,000 compounds; about 340 (0.77%) were called active. Roughly 5% stayed inconclusive and do not appear here. Calls follow the shape of the dose curve; as a rule, active = well fitted inhibition curve with a large enough effect; inconclusive = small, poorly fitted or top-dose-only effect; inactive = flat fitted curve, though single readings scatter. This is one part of the list.

Assay: Acumen qHTS Assay for Inhibitors of the mTORC1 Signaling Pathway in MEF (Tsc2-/-, p53-/-) Cells: Sytravon;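 also: plate controls were DMSO for no effect and rapamycin for full effect; nearly all actives have a fitted effect of over 50% in size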
Settings: phospho-rpS6 immunofluorescence/PI, 24 h; series mostly up to 38.3 µM; activity change, negative = inhibition: at the top concentration
Procedure, shortened: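 Readout is phospho-S6 Alexa 488 signal normalized to PI per well, reported as % active cells with thresholds set from rapamycin (7.5 nM) and DMSO controls. Cells: Tsc2-/-, p53-/- MEFs, 24 hrs compound at 37 C; PI cell number serves as viability.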

Activity change, negative = inhibition, inactive:
Cc1ccc(Sc2c(C)nn(C(=O)COc3ccccc3Br)c2C)cc1 -2.43%
CCOC(=O)c1ccc(NC(=O)CCn2c(=O)c3cccn3c3ccccc32)cc1 0%
CCOc1ccc(CCNC(=O)c2sc3nc4n(c(=O)c3c2C)CCCC4)cc1OCC -2.42%
Cc1ccc2[nH]c(CSc3nnc(NC(=O)COc4ccccc4)s3)cc(=O)c2c1 -17.7%
CCOC(=O)c1sc2ncn(CC(=O)Nc3ccc(N(C)C)cc3)c(=O)c2c1C -6.25%
O=C(Nc1nc2ccc(S(=O)(=O)N3CCCC3)cc2s1)c1cccc(F)c1 2.81%
CCS(=O)(=O)N1CCc2cc(C(=O)Nc3ccc(OC)c(Cl)c3)ccc21 -5.22%
CCCCn1cc(S(=O)(=O)c2ccc(C)c(C)c2)c(=O)c2cc(F)c(N3CCCC(C)C3)cc21 (stereo not given) 4.16%
COc1ccc(OC)c(CNC(=O)c2nn(-c3ccc(OC)c(Cl)c3)c(=O)c3c2c2ccccc2n3C)c1 -6.62%
CCOc1ccc2nc(N3CCCC(C(=O)Nc4c(C)cccc4C)C3)sc2c1 (stereo not given) -0.0902%
CCOc1ccc(N(C(=O)CC(C)C)S(=O)(=O)c2ccc3c(c2)oc(=O)n3C)cc1 -6.14%
Cc1ccc(-c2nc3scc(CCNC(=O)Cc4ccc(Cl)cc4)n3n2)cc1 5.44%
COc1ccc(CCNC(=O)CCCn2c(=O)c3ccccc3n(Cc3cccc(Cl)c3)c2=O)cc1OC -0.054%
CCC(=O)Nc1c(C(=O)N2CCN(c3ccc(F)cc3)CC2)oc2ccccc12 -1.02%
COc1ccc(CCNS(=O)(=O)c2ccc3c(c2)CC(C)N3C(=O)C2CCC2)cc1OC (stereo not given) -6.01%
CCOc1ccc(CC(=O)NCCc2csc(-c3ccc(C)cc3)n2)cc1 -19.1%
COc1ccc(S(=O)(=O)n2nc(C)c(S(=O)(=O)N3CCC(C)CC3)c2C)cc1C 7.62%
CCN(CC)c1ccc(NS(=O)(=O)c2ccc(-c3cnc(C4CC4)o3)cc2)c(C)c1 0%
O=C1NCCN(Cc2ccc(F)cc2)C1=O 0%
CCCn1c(SCc2nc(-c3ccc(OC)cc3OC)no2)nnc1-c1ccc(Cl)cc1 -5.95%
Cc1cccc(C)c1NC(=O)CSc1nc(-c2ccccc2)nc2c1Cc1c(CO)cnc(C)c1O2 -8.12%
CCC1CN(C(=O)N2CCC(C(=O)NCCc3ccc(Cl)cc3)CC2)c2ccccc2O1 (stereo not given) 4.36%
Cc1ccc(NC(=O)Cn2cc(C(=O)C3CC3)c3ccccc32)cc1 1.18%
COc1ccc(NC(=O)Cn2nnc(C(=O)Nc3ccc(F)c(Cl)c3)c2N)cc1OC -1.55%
COc1ccc(-c2noc(CN(C(=O)COc3cc(C)c(Br)c(C)c3)C(C)C)n2)cc1 -6.22%
Cn1c(SCc2ccc(F)cc2)nc2ccc(C(=O)NCc3ccc(Cl)cc3)cc21 -2.05%
Cn1c(=O)c(=O)n(C)c2cc(N3CCOCC3)c(NS(=O)(=O)c3ccc(Cl)cc3)cc21 0.0108%
Cc1nn(Cc2ccc(F)cc2)c(C)c1NC(=O)c1cc(CC(C)C)on1 -0.273%
CCc1ccc(S(=O)(=O)c2cn(CC(=O)Nc3ccc(C)cc3)c3ccccc3c2=O)cc1 -4.92%
CCOC(=O)c1[nH]c2c(c1Cc1ccccc1)C(=O)CC(c1ccc(Cl)cc1)C2 (stereo not given) 3.96%
CCOC(=O)c1ccc(NC(=O)c2c(NC(C)=O)sc3c2CCC(C)C3)cc1 (stereo not given) -28.5%
CCOc1ccc(CCNC(=O)c2ccc3c(Cl)c4c(nc3c2)CCCC4)cc1 1.68%
O=S(=O)(NCCc1nnc2ccc(SCc3ccc(Cl)cc3Cl)nn12)c1ccccc1 -15.6%
Cc1ccc(CNC(=O)c2ccc3nc(N4CCCCC4)sc3c2)cc1 -0.208%
COc1cccc(C(c2sc3nc(-c4ccco4)nn3c2O)N2CCC(O)CC2)c1 (stereo not given) -2.14%
CCOc1ccccc1NC(=O)c1sc2nc3n(c(=O)c2c1C)CCCCC3 1.62%
COCCOC(=O)c1c(C)n(S(=O)(=O)c2ccc(C)cc2)c2ccc(NS(=O)(=O)c3ccc(C)cc3)cc12 -11.3%
COc1ccc2cc3cc(C(=O)NCc4ccc(C)cc4)oc3nc2c1 -3.02%
Cc1cc(C)cc(NC(=O)CSc2nc3c(oc4ccccc43)c(=O)n2-c2ccccc2F)c1 0.422%
COc1ccc(OC)c(CCNC(=O)c2ccc3c(c2)N(Cc2ccc(C)cc2)CCS3)c1 -17.8%
COc1ccc(F)cc1S(=O)(=O)NCCc1c(C)[nH]c2c(Cl)cccc12 7.1%
Cc1ccc(-c2nnc(Nc3ccc(O)cc3)c3ccccc23)cc1S(=O)(=O)N1CCN(C)CC1 2%
COc1ccc(Nc2cc(C(=O)NCCc3ccc(C)cc3)c3ccccc3n2)c(OC)c1 -17.1%
CCOC(=O)N1CCC(NC(=O)c2c(C)nn(-c3ccc(C)cc3)c2-n2cccc2)CC1 2.69%
CCOCCCNC(=O)C1CCN(c2nn3cc(-c4ccc(F)cc4)nc3s2)CC1 -1.84%
CCCn1c2ccccc2c2cnn(CC(=O)NCCc3ccc(OCC)cc3)c(=O)c21 -14.7%
CCOc1ccc(-c2nn(CC(=O)NC3CCCCC3)c3c2cnc2ccc(C)cc23)cc1 -0.632%
Cc1ccc(C(=O)NCCc2ccc(Cl)cc2)cc1-n1c(C)nc2cccnc21 3.78%
CCOc1ccc(NC(=O)CCNS(=O)(=O)c2ccc3c(c2)oc(=O)n3C)cc1 -3.41%
COc1ccc(NC(=O)Cn2nnc3sc4c(c3c2=O)CCC(C)C4)c(OC)c1 (stereo not given) 6.17%
COc1ccccc1CNC(=O)c1ccc2c(c1)N(Cc1cccc(C)c1)C(=O)c1ccccc1S2(=O)=O 2.61%
Cc1ccc(C)c(Cn2c3ccccc3c3cnn(CC(=O)NCCC4=CCCCC4)c(=O)c32)c1 -4.79%
COc1ccc(Cl)cc1NC(=O)c1sc(-n2nc(C)c(Cc3ccccc3)c2C)nc1C 1.84%
CCn1c(=O)c2cc(C(=O)N(CCN(C)C)Cc3ccccc3)sc2c2ccccc21 -2.4%
CCOc1cc(C(=O)N2CC(=O)Nc3ccc(C)cc3C2c2ccccc2)cc(OCC)c1OCC (stereo not given) -5.1%
Cc1nnc(SCc2ccccc2)c2cc3sccc3n12 -6.56%
O=S(=O)(Nc1cccc(-c2ccc(N3CCCC3)nn2)c1)c1ccccc1C(F)(F)F -17.2%
COCCCNC(=O)CSC1=Nc2ccccc2C2=NC(CCC(=O)NCc3ccccc3OC)C(=O)N12 (stereo not given) 1.11%
CCc1ccc(CN(Cc2ccco2)C(=O)c2ccc(OC)cc2)cc1 -6.8%
CCc1ccc(CNC(=O)CCC(=O)N2Cc3cccc(OC)c3Oc3ncccc32)cc1 0.792%
